Test results reported in publication PMC7248809, “Differential Proliferation Effect of the Newly Synthesized Valine, Tyrosine and Tryptophan–Naphthoquinones in Immortal and Tumorigenic Cervical Cell Lines” (Molecules, 2020).

system: C33-A cells (HPV negative cervical tumor line); assay: cells; conditions: Homo sapiens, C-33-A, 72 h

| SMILES | IC50 |
| --- | --- |
| O=C1C=C(NC(Cc2ccc(O)cc2)C(=O)O)C(=O)c2ccccc21 (stereo not shown) [Compound 3a, 2-((1,4-dioxo-1,4-dihydronphthalen-2-yl)amino)-3-(4-hydroxyphenyl) propanoic acid] | 55.6 µM |
| CC(C)C(NC1=CC(=O)c2ccccc2C1=O)C(=O)O (stereo not shown) [Compound 3b, 2-((1,4-dioxo-1,4-dihydronaphthalen-2-yl)amino)-3-methylbutanoic acid] | 55.6 µM |
| O=C1C=C(NC(Cc2c[nH]c3ccccc23)C(=O)O)C(=O)c2ccccc21 (stereo not shown) [Compound 3c, 2-((1,4-dioxo-1,4-dihidronaphthalen-2-yl)amino)-3-(1H-indol-3-yl)propanoic acid] | 21.4 µM |
| O=C1C(Cl)=C(NC(Cc2c[nH]c3ccccc23)C(=O)O)C(=O)c2ccccc21 (stereo not shown) [Compound 4c, 2-((3-chloro-1,4-dioxo-1,4-dihydronaphthalen-2-yl)amino)-3-(1H-indol-3-yl)propanoic acid] | ~0.00345 µM |
